Laboratory results as given in patent publication US11618753B2 (priority 2018, dated 2023).
Structures can show the parent of a compound that is named as a salt.

Each compound was assayed on MLKL phosphorylation, HT29-L23 human colorectal adenocarcinoma cells (assay: cells). Conditions: read-out: pMLKL HCS Cell Assay (IC50, uM).
For `Nc1ncnn2c(-c3cccc(C(=O)N[C@@H]4CN(C(=O)C5CC(F)(F)C5)C[C@@H]4F)c3)cc(CN3CC(F)(F)C3)c12` [Example 1181, 3-{4-amino-5-[(3,3-difluoroazetidin-1-yl)methyl]pyrrolo[2,1-f][1,2,4]triazin-7-yl}-N-[(3R,4S)-1-(3,3-difluorocyclobutanecarbonyl)-4-fluoropyrrolidin-3-yl]benzamide], the IC50 was 0.0013 µM. Work on `Cc1ncc(-c2cc(C(F)(F)F)c3c(N)ncnn23)cc1C(=O)N[C@@H]1CN(C(=O)CC(C)C(F)(F)F)C[C@@H]1F` (stereo partly drawn) [Example 1232, 5-[4-amino-5-(trifluoromethyl)pyrrolo[2,1-f][1,2,4]triazin-7-yl]-N-[(3R,4S)-4-fluoro-1-(4,4,4-trifluoro-3-methylbutanoyl)pyrrolidin-3-yl]-2-methylpyridine-3-carboxamide] yielded an IC50 of 0.0033 µM. Work on `Nc1ncnn2c(-c3cc(F)c(CF)c(C(=O)N[C@@H]4CN(C(=O)c5ccccc5F)C[C@@H]4F)c3)cc(C(F)(F)F)c12` [Example 626, 5-[4-amino-5-(trifluoromethyl)pyrrolo[2,1-f][1,2,4]triazin-7-yl]-3-fluoro-N-[(3R,4S)-4-fluoro-1-(2-fluorobenzoyl)pyrrolidin-3-yl]-2-(fluoromethyl)benzamide] yielded an IC50 of 0.0028 µM. `CC(C)(O)C(=O)N1C[C@H](F)[C@H](NC(=O)c2ccc(F)c(-c3cc(C(F)(F)F)c4c(N)ncnn34)c2)C1` [Example 427, 3-[4-amino-5-(trifluoromethyl)pyrrolo[2,1-f][1,2,4]triazin-7-yl]-4-fluoro-N-[(3R,4S)-4-fluoro-1-(2-hydroxy-2-methylpropanoyl)pyrrolidin-3-yl]benzamide, TFA] gave an IC50 of 0.405 µM. Work on `CCc1ccc(-c2cc(C(F)(F)F)c3c(N)ncnn23)c(F)c1C(=O)N[C@@H]1CN(C(=O)C2CCC(F)(F)CC2)C[C@@H]1F` [Example 739, 3-[4-amino-5-(trifluoromethyl)pyrrolo[2,1-f][1,2,4]triazin-7-yl]-N-[(3R,4S)-1-(4,4-difluorocyclohexanecarbonyl)-4-fluoropyrrolidin-3-yl]-6-ethyl-2-fluorobenzamide] yielded an IC50 of 0.223 µM. `CC(C)(F)C(=O)N1C[C@H](F)[C@H](NC(=O)c2cc(-c3cc(C(F)(F)F)c4c(N)ncnn34)c(Cl)cc2F)C1` [Example 522, 5-[4-amino-5-(trifluoromethyl)pyrrolo[2,1-f][1,2,4]triazin-7-yl]-4-chloro-2-fluoro-N-[(3R,4S)-4-fluoro-1-(2-fluoro-2-methylpropanoyl)pyrrolidin-3-yl]benzamide] showed an IC50 of 0.131 µM. `CNC(=O)c1cc(-c2cnc(OC)c(C(=O)NCC[C@H](O)c3ccc(Cl)cc3)c2)n2ncnc(N)c12` [Example 477, 5-[4-amino-5-(methylcarbamoyl)pyrrolo[2,1-f][1,2,4]triazin-7-yl]-N-[(3S)-3-(4-chlorophenyl)-3-hydroxypropyl]-2-methoxypyridine-3-carboxamide] was tested, and the IC50 was 0.072 µM. `COc1ncc(-c2c(F)cc3c(N)ncnn23)cc1C(=O)N[C@@H]1CN(C(=O)C2CCOCC2)C[C@@H]1F` [Example 509, 5-{4-amino-6-fluoropyrrolo[2,1-f][1,2,4]triazin-7-yl}-N-[(3R,4S)-4-fluoro-1-(oxane-4-carbonyl)pyrrolidin-3-yl]-2-methoxypyridine-3-carboxamide] showed an IC50 of 0.315 µM. For `Cc1ccc(-c2cc(CN3CCOCC3)c3c(N)ncnn23)cc1C(=O)N[C@@H]1CN(C(=O)OCC(F)(F)F)C[C@@H]1F` [Example 1577, 2,2,2-trifluoroethyl (3R,4S)-3-(5-{4-amino-5-[(morpholin-4-yl)methyl]pyrrolo[2,1-f][1,2,4]triazin-7-yl}-2-methylbenzamido)-4-fluoropyrrolidine-1-carboxylate], the IC50 was 0.00045 µM. For `CC(C(=O)N1C[C@H](F)[C@H](NC(=O)c2cc(-c3cc(C(F)(F)F)c4c(N)ncnn34)ccc2OC(F)(F)F)C1)C(F)(F)F` (stereo partly drawn) [Example 1058, 5-[4-amino-5-(trifluoromethyl)pyrrolo[2,1-f][1,2,4]triazin-7-yl]-N-[(3R,4S)-4-fluoro-1-(3,3,3-trifluoro-2-methylpropanoyl)pyrrolidin-3-yl]-2-(trifluoromethoxy)benzamide], the IC50 was 0.244 µM. `COc1ncc(-c2cc(C(F)(F)F)c3c(N)ncnn23)cc1C(=O)N[C@@H]1CN(S(=O)(=O)CC(F)(F)F)C[C@@H]1F` [Example 1467, 5-[4-amino-5-(trifluoromethyl)pyrrolo[2,1-f][1,2,4]triazin-7-yl]-N-[(3R,4S)-4-fluoro-1-(2,2,2-trifluoroethanesulfonyl)pyrrolidin-3-yl]-2-methoxypyridine-3-carboxamide] showed an IC50 of 0.016 µM. `CC(O)(CC(=O)N1C[C@H](F)[C@H](NC(=O)c2cc(-c3cc(C(F)(F)F)c4c(N)ncnn34)ccc2OC(F)F)C1)C(F)(F)F` (stereo partly drawn) [Example 1091, 5-[4-amino-5-(trifluoromethyl)pyrrolo[2,1-f][1,2,4]triazin-7-yl]-2-(difluoromethoxy)-N-[(3R,4S)-4-fluoro-1-(4,4,4-trifluoro-3-hydroxy-3-methylbutanoyl)pyrrolidin-3-yl]benzamide] gave an IC50 of 0.017 µM. Work on `COc1ncc(-c2cc(C(F)(F)F)c3c(N)ncnn23)cc1C(=O)N[C@@H]1CN(C(C)c2ccccc2F)C[C@@H]1F` (single isomer, unassigned) [Example 449] yielded an IC50 of 0.0028 µM. For `Cc1ncc(-c2cc(C(F)(F)F)c3c(N)ncnn23)cc1C(=O)NCCC(C)c1ccccc1` (stereo not shown) [Example 171, 5-[4-amino-5-(trifluoromethyl)pyrrolo[2,1-f][1,2,4]triazin-7-yl]-2-methyl-N-(3-phenylbutyl)pyridine-3-carboxamide], the IC50 was 0.003 µM. Compound `Cc1cc(F)c(-c2cc(C(F)(F)F)c3c(N)ncnn23)cc1C(=O)N[C@@H]1CN(C(=O)c2ccc(F)cc2F)C[C@@H]1F` [Example 832, 5-[4-amino-5-(trifluoromethyl)pyrrolo[2,1-f][1,2,4]triazin-7-yl]-N-[(3R,4S)-1-(2,4-difluorobenzoyl)-4-fluoropyrrolidin-3-yl]-4-fluoro-2-methylbenzamide] has an IC50 of 0.012 µM. `COc1ncc(-c2cc(C(F)(F)F)c3c(N)ncnn23)cc1C(=O)Nc1ncc(C(=O)NCc2cc(OC(F)(F)F)ccc2F)s1` [Example 1305, 5-[4-amino-5-(trifluoromethyl)pyrrolo-[2,1-f][1,2,4]triazin-7-yl]-N-[5-({[2-fluoro-5-(trifluoromethoxy)phenyl]-methyl}carbamoyl)-1,3-thiazol-2-yl]-2-methoxypyridine-3-carboxamide] showed an IC50 of 0.48 µM. With `COc1ncc(-c2cc(C(F)(F)F)c3c(N)ncnn23)cc1C(=O)N[C@@H]1CN(C(=O)C2(F)CCC2)C[C@@H]1F` [Example 330, 5-[4-amino-5-(trifluoromethyl)pyrrolo[2,1-f][1,2,4]triazin-7-yl]-N-[(3R,4S)-4-fluoro-1-(1-fluorocyclobutanecarbonyl)pyrrolidin-3-yl]-2-methoxypyridine-3-carboxamide] the IC50 was 0.0099 µM. For `Cc1ncc(-c2cc(C(F)(F)F)c3c(N)ncnn23)cc1C(=O)Nc1cnn(Cc2cc(OC(F)(F)F)ccc2F)c1` [Example 1775, 5-(4-amino-5-(trifluoromethyl)pyrrolo[2,1-f][1,2,4]triazin-7-yl)-N-(1-(2-fluoro-5-(trifluoromethoxy)benzyl)-1H-pyrazol-4-yl)-2-methylnicotinamide], the IC50 was 0.0099 µM. With `COc1ncc(-c2cc(C(F)(F)F)c3c(N)ncnn23)cc1C(=O)N[C@@H]1CN(CC(O)COC(F)(F)C(F)F)C[C@@H]1F` (stereo partly drawn) [Example 1832, 5-(4-amino-5-(trifluoromethyl)pyrrolo[2,1-f][1,2,4]triazin-7-yl)-N-((3R,4S)-4-fluoro-1-(2-hydroxy-3-(1,1,2,2-tetrafluoroethoxy)propyl)pyrrolidin-3-yl)-2-methoxynicotinamide] the IC50 was 0.172 µM. With `COc1ncc(-c2cc(C(F)(F)F)c3c(N)ncnn23)cc1C(=O)NCC[C@H](O)c1ccc(Cl)cc1` [Example 10, 5-[4-amino-5-(trifluoromethyl)pyrrolo[2,1-f][1,2,4]triazin-7-yl]-N-[(3S)-3-(4-chlorophenyl)-3-hydroxypropyl]-2-methoxypyridine-3-carboxamide] the IC50 was 0.0049 µM. Compound `COc1ncc(-c2cc(OS(=O)(=O)c3ccc(C)cc3)c3c(N)ncnn23)cc1C(=O)N[C@@H]1CN(C(=O)C2CC(F)(F)C2)C[C@@H]1F` [Example 1601, 4-amino-7-(5-{[(3R,4S)-1-(3,3-difluorocyclobutanecarbonyl)-4-fluoropyrrolidin-3-yl]carbamoyl}-6-methoxypyridin-3-yl)pyrrolo[2,1-f][1,2,4]triazin-5-yl 4-methylbenzene-1-sulfonate] has an IC50 of 0.0043 µM. For `Cc1ccc(-c2cc(C(F)(F)F)c3c(N)ncnn23)cc1C(=O)N[C@@H]1CN(C(=O)c2ccncc2F)C[C@@H]1F` [Example 1006, 5-[4-amino-5-(trifluoromethyl)pyrrolo[2,1-f][1,2,4]triazin-7-yl]-N-[(3R,4S)-4-fluoro-1-(3-fluoropyridine-4-carbonyl)pyrrolidin-3-yl]-2-methylbenzamide], the IC50 was 0.0072 µM. For `COc1ncc(-c2cc(C(F)(F)F)c3c(N)ncnn23)cc1C(=O)N[C@@H]1CN(C(=O)NCC(F)(F)F)C[C@@H]1F` [Example 1843, 5-(4-amino-5-(trifluoromethyl)pyrrolo[2,1-f][1,2,4]triazin-7-yl)-N-((3R,4S)-4-fluoro-1-((2,2,2-trifluoroethyl)carbamoyl)pyrrolidin-3-yl)-2-methoxynicotinamide], the IC50 was 0.076 µM. `COc1c(F)cc(-c2cc(C(F)(F)F)c3c(N)ncnn23)cc1C(=O)N[C@@H]1CN(C(=O)C2CC(F)C2)C[C@@H]1F` (stereo partly drawn) [Example 687, 5[-4-amino-5-(trifluoromethyl)pyrrolo[2,1-f][1,2,4]triazin-7-yl]-3-fluoro-N-[(3R,4S)-4-fluoro-1-(3-fluorocyclobutanecarbonyl)pyrrolidin-3-yl]-2-methoxybenzamide] was tested, and the IC50 was 0.037 µM. With `Nc1ncnn2c(-c3cc(F)c(F)c(C(=O)N[C@@H]4CN(C(=O)C5CCC(F)(F)C5)C[C@@H]4F)c3)cc(C(F)(F)F)c12` (stereo partly drawn) [Example 1333, 5-[4-amino-5-(trifluoromethyl)pyrrolo-[2,1-f][1,2,4]triazin-7-yl]-N-[(3R,4S)-1-(3,3-difluorocyclopentanecarbonyl)-4-fluoropyrrolidin-3-yl]-2,3-difluoro-benzamide] the IC50 was 0.015 µM.
